Source: the supplement of paper PMC4166925
± gives the standard deviation of the averaged measurements. Over roughly 33,000 sequences, “E-score (dimensionless, -0.5 to 0.5)” has its median near -0.049; the highest 2% begin near 0.37. Some of the results follow.

test system: T1, PmTbr T-box DNA-binding domain (GST fusion); assay: PBM E-score of 8-mer (E-score (dimensionless, -0.5 to 0.5)); Tbr is Tbrain of the sea star Patiria miniata (Pm) or the sea urchin Strongylocentrotus purpuratus (Sp); higher = stronger binding preference; most listed sequences are background and not binding sites; settings: the construct has about 5 more residues each side
T1 sequence: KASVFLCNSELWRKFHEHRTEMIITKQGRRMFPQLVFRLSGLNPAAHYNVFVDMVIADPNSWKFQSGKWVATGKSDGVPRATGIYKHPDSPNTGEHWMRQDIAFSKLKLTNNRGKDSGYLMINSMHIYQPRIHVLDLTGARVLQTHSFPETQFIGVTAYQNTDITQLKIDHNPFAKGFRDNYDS
Procedure, shortened: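 Universal Agilent oligonucleotide arrays, made double-stranded by primer extension, were incubated with 200 nM GST-fused Tbr T-box DNA-binding domain in PBS (pH 7.5). The protein was expressed in BL21 E. coli at 20 °C and purified by glutathione affinity chromatography. After scanning and quantification, the Universal PBM Analysis Suite assigned an enrichment E-score to each ungapped 8-mer, averaged over duplicate arrays.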

Row | Sequence | PBM E-score of 8-mer
1 | CAACTAAG | -0.0704 ± 0.055
2 | GCTGCGCC | -0.0388 ± 0.047
3 | CAGCTGCA | -0.101 ± 0.06
4 | CAAGTCTC | 0.172 ± 0.046
5 | TTACGTAA | -0.0761 ± 0.031
6 | AGCCCTTC | -0.194 ± 0.017
7 | TCTGGGCA | -0.0451 ± 0.023
8 | ACAAACAG | -0.083 ± 0.0083
9 | AGCCGACT | -0.22 ± 0.0026
10 | CGCGCCGA | 0.21 ± 0.064
11 | CCCGGCCA | -0.23 ± 0.025
12 | GATAAGAA | 0.102 ± 0.13
13 | TGAAGACA | 0.0807 ± 0.028
14 | AGCCGTAC | -0.2803 ± 0.00098
15 | CGAGCATC | -0.0802 ± 0.0088
16 | AGAACGAA | -0.0612 ± 0.042
17 | GCCCTAGC | -0.203 ± 0.061
18 | CATATTTA | -0.0588 ± 0.093
19 | AAGATAAT | -0.18 ± 0.038
20 | GCGGTCAA | -0.18 ± 0.05
21 | CCGCGGTC | -0.222 ± 0.077
22 | TTTGCAAA | -0.056 ± 0.12
23 | GTCTAGCA | 0.141 ± 0.028
24 | TCACGTCA | 0.0939 ± 0.054
25 | GAAGTGCA | 0.179 ± 0.012

Row | Sequence | PBM E-score of 8-mer
26 | AGTGGGGC | 0.0261 ± 0.12
27 | TAAAGTGA | 0.216 ± 0.056
28 | ACTCCAAG | 0.00615 ± 0.0035
29 | ACGGTAAA | -0.267 ± 0.12
30 | GAGTTGCC | 0.0293 ± 0.068
31 | ACCCTTGA | -0.0411 ± 0.022
32 | ACAATGCG | 0.217 ± 0.015
33 | ACAGTGTA | 0.0105 ± 0.032
34 | AACTGTCA | 0.3 ± 0.049
35 | ACCTGCAG | 0.118 ± 0.037
36 | AGTTGCGA | 0.412 ± 0.0052
37 | CATCTCGC | 0.172 ± 0.027
38 | AGCTAGTC | 0.0595 ± 0.059
39 | CCCTCGAG | -0.301 ± 0.036
40 | CCTATGAG | -0.187 ± 0.01
41 | AAGACGTC | -0.123 ± 0.039
42 | AAAAACGC | 0.121 ± 0.033
43 | AGATGACG | 0.066 ± 0.088
44 | AGAGCGAC | -0.0157 ± 0.028
45 | GCCACGAA | 0.039 ± 0.026
46 | ATACTTTC | 0.0343 ± 0.068
47 | ACTCTGTC | 0.0361 ± 0.024
48 | CTTGATAA | 0.151 ± 0.072
49 | GTCAGCAC | 0.286 ± 0.0094
50 | CGCTCGCA | 0.337 ± 0.0072

Row | Sequence | PBM E-score of 8-mer
51 | AAAACAGA | -0.132 ± 0.062
52 | ATATGTCC | -0.203 ± 0.019
53 | ACCCCCAT | -0.113 ± 0.0049
54 | CCGAACCC | -0.364 ± 0.025
55 | CGTGGGAG | -0.087 ± 0.053
56 | CTTCCTAA | -0.0585 ± 0.068
57 | CCGCACTA | 0.0832 ± 0.031
58 | TAATCCAA | -0.067 ± 0.059
59 | CCCGAGTA | -0.0583 ± 0.034
60 | CCCCAAAC | -0.132 ± 0.029
61 | CCCTCTCA | 0.0553 ± 0.024
62 | ACTCGAAG | 0.0915 ± 0.0019
63 | ACCGAGAG | -0.0794 ± 0.012
64 | AACGGACC | -0.109 ± 0.082
65 | GCCGCTTA | -0.0463 ± 0.018
66 | CCGAAGAG | -0.172 ± 0.08
67 | GGGCGTGA | 0.429 ± 0.0092
68 | TATACAAA | -0.128 ± 0.064
69 | GTCGACAA | 0.295 ± 0.022
70 | ACAAGTTC | 0.152 ± 0.083
71 | CCAATGAG | -0.195 ± 0.063
72 | AGCTGTCG | 0.3103 ± 0.003
73 | AATTACGC | -0.0811 ± 0.038
74 | CTGACGGC | -0.0163 ± 0.0013
75 | ATCACAGA | 0.129 ± 0.011

Row | Sequence | PBM E-score of 8-mer
76 | AGGCAAAA | -0.162 ± 0.044
77 | AGCCAGAT | -0.164 ± 0.014
78 | GGAACTAA | -0.03 ± 0.01
79 | CGATAGTA | -0.0992 ± 0.081
80 | CTGTTTGC | 0.0865 ± 0.013
81 | CTACATGA | -0.0685 ± 0.044
82 | CGATTGAA | 0.007 ± 0.0015
83 | AGGCCACG | -0.298 ± 0.036
84 | TAGCGCGA | 0.3803 ± 0.0017
85 | AGCGTTAA | 0.265 ± 0.06
86 | ACGTGTTA | 0.442 ± 0.015
87 | AGATAGCA | 0.132 ± 0.017
88 | AGAAGGAA | -0.158 ± 0.066
89 | ATTGTTCA | -0.0585 ± 0.03
90 | CTAGGCGA | 0.0555 ± 0.032
91 | GACTTTAC | -0.124 ± 0.039
92 | ACGGGAAC | -0.105 ± 0.032
93 | ACTGAGTG | 0.152 ± 0.014
94 | GAAGTGTC | 0.454 ± 0.0065
95 | AGGTTTCA | 0.178 ± 0.097
96 | ACTAAGCA | -0.23 ± 0.048
97 | CCTGCTGC | -0.114 ± 0.039
98 | CATTCTAA | -0.168 ± 0.0046
99 | AATCACTC | 0.064 ± 0.0014
100 | ATCAGAGA | -0.329 ± 0.017

Row | Sequence | PBM E-score of 8-mer
101 | ACGCACCA | 0.0123 ± 0.072
102 | TACTATCA | -0.101 ± 0.12
103 | CATATACC | -0.222 ± 0.0056
104 | GTTTCGCA | 0.3685 ± 0.0028
105 | GGGGCAGA | -0.165 ± 0.033
106 | ACCCGCGT | 0.0988 ± 0.05
107 | GAATCGCC | 0.0244 ± 0.02
108 | TTGGTAAA | -0.0778 ± 0.047
109 | AGGCTTCC | -0.191 ± 0.065
110 | CCCGTGAA | 0.121 ± 0.039
111 | CGGATGTA | -0.231 ± 0.047
112 | AGGAGGCA | -0.148 ± 0.06
113 | TGATCTAA | -0.159 ± 0.099
114 | GTAGAAAA | -0.138 ± 0.0086
115 | AGCCGATA | -0.128 ± 0.071
116 | GGTCTGAA | -0.328 ± 0.021
117 | CTTGACTC | -0.217 ± 0.046
118 | ACTTACGG | -0.0227 ± 0.053
119 | ATGAGGCC | -0.283 ± 0.021
120 | GCTGTGGA | 0.0103 ± 0.095
121 | ACAGACGG | 0.106 ± 0.028
122 | AAATGGCC | -0.316 ± 0.0079
123 | CAAAGGGA | -0.136 ± 0.0072
124 | TGCGTTAA | 0.109 ± 0.017
125 | AGTACCAA | -0.13 ± 0.028

Row | Sequence | PBM E-score of 8-mer
126 | CCGGGCCC | -0.0837 ± 0.077
127 | AGCACGTC | 0.19 ± 0.017
128 | ACGGCGGA | -0.168 ± 0.031
129 | CACGGTTA | 0.00239 ± 0.015
130 | CAAATTCC | 0.0365 ± 0.027
131 | CCATAGAA | -0.00586 ± 0.0026
132 | AACATCAC | 0.179 ± 0.025
133 | GGAATCGA | -0.0922 ± 0.025
134 | GTATCACA | 0.27 ± 0.019
135 | TTACAGAA | -0.093 ± 0.056
136 | AGTCGTGG | -0.0635 ± 0.048
137 | GAACAAAC | -0.128 ± 0.055
138 | ATACACAC | 0.158 ± 0.025
139 | ACAGTATG | 0.086 ± 0.1
140 | AGTCCACA | 0.153 ± 0.065
141 | CACTTCCA | 0.351 ± 0.048
142 | AGCGCCTC | 0.273 ± 0.033
143 | CATATAAC | -0.104 ± 0.043
144 | ACCCCACT | 0.0317 ± 0.038
145 | CGGGTTCA | 0.0392 ± 0.03
146 | AAATGTAT | -0.167 ± 0.056
147 | GGTCTTCA | -0.0677 ± 0.014
148 | CAAGCCGA | -0.114 ± 0.064
149 | AAGCACAG | -0.192 ± 0.079
150 | AACATTAT | -0.133 ± 0.0017

Row | Sequence | PBM E-score of 8-mer
151 | CAGATGTA | -0.0221 ± 0.013
152 | GGGGATAA | -0.177 ± 0.061
153 | AAAGCAAC | 0.00449 ± 0.025
154 | AACAGTCG | 0.119 ± 0.029
155 | TCTAGCCA | -0.165 ± 0.016
156 | CCCTTCGC | 0.0769 ± 0.021
157 | ACTCCGGG | 0.00388 ± 0.021
158 | GCCAAGTA | -0.0151 ± 0.041
159 | CGCTACTA | 0.0835 ± 0.085
160 | GCGCTGTA | 0.161 ± 0.0023
161 | GCACGAAA | -0.0162 ± 0.018
162 | ATTCGTGA | 0.138 ± 0.054
163 | ACATTGCG | 0.0804 ± 0.046
164 | AACACCCA | 0.348 ± 0.029
165 | ATCATATC | -0.0297 ± 0.00054
166 | GACAATGA | 0.17 ± 0.063
167 | GAGTGCCA | 0.242 ± 0.0057
168 | ATAGAGAT | -0.0802 ± 0.0069
169 | GCAGCCGA | -0.05 ± 0.043
170 | ATCAACGA | -0.0116 ± 0.013
171 | CAGGACAC | 0.15 ± 0.08
172 | TATAATCA | -0.0352 ± 0.059
